Among the data in publication PMC3492284 are binding values, retold here.

The target of this assay is T1, HA-epitope tagged Cbl-c, full length (UniProt Q9ULV8).
T1 sequence: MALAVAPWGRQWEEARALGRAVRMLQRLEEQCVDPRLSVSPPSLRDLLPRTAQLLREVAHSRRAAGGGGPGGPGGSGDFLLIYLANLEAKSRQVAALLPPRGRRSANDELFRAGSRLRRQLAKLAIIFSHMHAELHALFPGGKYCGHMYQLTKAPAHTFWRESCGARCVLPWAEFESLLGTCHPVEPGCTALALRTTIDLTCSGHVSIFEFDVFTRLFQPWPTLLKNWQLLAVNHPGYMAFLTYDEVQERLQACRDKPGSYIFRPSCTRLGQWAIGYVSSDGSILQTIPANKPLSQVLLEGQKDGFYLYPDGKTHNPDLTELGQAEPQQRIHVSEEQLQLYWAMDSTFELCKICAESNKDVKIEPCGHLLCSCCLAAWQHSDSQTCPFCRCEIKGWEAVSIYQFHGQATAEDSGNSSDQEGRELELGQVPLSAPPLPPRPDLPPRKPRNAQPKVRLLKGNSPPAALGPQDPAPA
Put plainly: co-IP; HEK293T cells co-transfected; 200 µg lysate protein; HA-tagged Cbl proteins precipitated with HA-affinity matrix overnight at 4°C; lysis buffer 10 mM Tris-HCl pH 7.5, 150 mM NaCl, 5 mM EDTA, 1% Triton X-100, 10% glycerol; blot for Hic-5 or Trip-6.

Results are given in words; binding and its absence hold for the method and conditions named. In cells and extracts the contact can be indirect. Where a sequence is shown, tags or fusion partners need not be part of it.

B1: Trip-6, full-length cDNA (protein, UniProt Q15654 1-476)
chain: MSGPTWLPPKQPEPARAPQGRAIPRGTPGPPPAHGAALQPHPRVNFCPLPSEQCYQAPGGPEDRGPAWVGSHGVLQHTQGLPADRGGLRPGSLDAEIDLLSSTLAELNGGRGHASRRPDRQAYEPPPPPAYRTGSLKPNPASPLPASPYGGPTPASYTTASTPAGPAFPVQVKVAQPVRGCGPPRRGASQASGPLPGPHFPLPGRGEVWGPGYRSQREPGPGAKEEAAGVSGPAGRGRGGEHGPQVPLSQPPEDELDRLTKKLVHDMNHPPSGEYFGQCGGCGEDVVGDGAGVVALDRVFHVGCFVCSTCRAQLRGQHFYAVERRAYCEGCYVATLEKCATCSQPILDRILRAMGKAYHPGCFTCVVCHRGLDGIPFTVDATSQIHCIEDFHRKFAPRCSVCGGAIMPEPGQEETVRIVALDRSFHIGCYKCEECGLLLSSEGECQGCYPLDGHILCKACSAWRIQELSATVTTDC
Turning to B1, the binding entry is recorded as “no binding”.
